# Paper PMC4336329 (PLoS ONE, 2015)
# The campaign covered roughly 310,000 compounds. About 14,000 (4.5%) showed an effect of 50% or more. The effect is printed as a negative number. Some of the results follow.
# Biological target: human ether-à-go-go-related gene (hERG) potassium channel (human, UniProt Q12809)
# Assay: primary screen, population patch clamp on CHO cells stably expressing hERG
# 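Also: peak tail current of the secondary pulse compared with the same well before compound.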
# human ether-à-go-go-related gene (hERG) potassium channel, sequence (Q12809 whole entry, looked up): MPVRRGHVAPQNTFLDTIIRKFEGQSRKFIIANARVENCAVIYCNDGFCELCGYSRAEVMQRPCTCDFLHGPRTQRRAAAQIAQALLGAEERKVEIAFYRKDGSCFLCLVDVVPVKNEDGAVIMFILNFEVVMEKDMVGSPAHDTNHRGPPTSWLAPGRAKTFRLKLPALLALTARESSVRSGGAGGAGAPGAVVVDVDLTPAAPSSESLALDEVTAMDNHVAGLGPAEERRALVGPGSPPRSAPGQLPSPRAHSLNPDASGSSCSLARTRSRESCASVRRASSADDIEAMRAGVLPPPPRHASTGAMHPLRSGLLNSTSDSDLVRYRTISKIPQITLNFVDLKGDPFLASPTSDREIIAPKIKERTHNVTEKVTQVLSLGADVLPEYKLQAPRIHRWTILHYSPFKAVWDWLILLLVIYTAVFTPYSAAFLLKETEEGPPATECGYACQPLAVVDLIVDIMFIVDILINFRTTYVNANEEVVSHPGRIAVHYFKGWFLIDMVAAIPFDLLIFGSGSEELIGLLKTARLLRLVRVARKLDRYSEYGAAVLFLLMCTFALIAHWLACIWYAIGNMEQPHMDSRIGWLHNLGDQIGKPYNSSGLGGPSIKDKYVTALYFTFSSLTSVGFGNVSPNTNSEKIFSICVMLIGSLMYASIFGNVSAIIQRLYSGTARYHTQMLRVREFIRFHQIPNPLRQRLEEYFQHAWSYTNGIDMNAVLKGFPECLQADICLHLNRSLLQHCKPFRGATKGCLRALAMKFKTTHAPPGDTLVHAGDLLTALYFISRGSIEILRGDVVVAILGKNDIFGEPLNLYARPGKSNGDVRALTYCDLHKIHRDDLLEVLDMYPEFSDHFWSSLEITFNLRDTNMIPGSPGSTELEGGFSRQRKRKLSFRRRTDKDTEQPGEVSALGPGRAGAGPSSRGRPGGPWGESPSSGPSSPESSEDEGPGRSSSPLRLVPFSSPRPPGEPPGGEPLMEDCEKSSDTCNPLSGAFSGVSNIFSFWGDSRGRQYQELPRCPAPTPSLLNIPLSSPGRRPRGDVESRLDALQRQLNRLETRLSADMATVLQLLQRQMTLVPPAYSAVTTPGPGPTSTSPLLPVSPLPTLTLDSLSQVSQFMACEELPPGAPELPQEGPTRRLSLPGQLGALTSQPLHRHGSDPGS
row,SMILES,"hERG current change (%, negative = inhibition) at 10uM"
1,O=C(N/N=C\c1ccc2c(c1)OCO2)c1cncc(Br)c1,10.2%
2,O=C(COc1ccccc1[N+](=O)[O-])Nc1ccc2oc(=O)ccc2c1,22.1%
3,O=C(Nc1nnc(-c2ccc3c(c2)CCCC3)o1)c1ccc(Cl)cc1Cl,-2.79%
4,O=C(O)CCn1nnc(-c2cccs2)n1,7.58%
5,Nc1nc(NCc2ccco2)nc(N2CCN(Cc3ccccc3)CC2)c1[N+](=O)[O-],-41.9%
6,CN(CC(=O)Nc1ccccc1C(F)(F)F)C(=O)COc1ncnc2sccc12,-3.3%
7,O=C(NCC1COc2ccccc2O1)Nc1ccccc1F (stereo not shown),-4.46%
8,Cc1csc(N/N=C/c2ccccc2F)n1,22.7%
9,NC(=O)CSc1nnc(-c2ccccn2)n1Cc1ccco1,4.36%
10,CC(C)CCNC(=O)Cn1c(=O)oc2cc(S(=O)(=O)N3CCc4ccccc43)ccc21,1.35%
11,CC(C)(C)NC(=O)CSc1nsc(SCC(=O)NC(C)(C)C)c1C#N,-5.05%
12,CSCCC(N=C(NS(=O)(=O)c1ccc(Br)cc1)c1ccccc1)C(=O)O (stereo not shown),17.3%
13,CSc1ccc(CN(C)CC(=O)Nc2ccc(C)cc2Br)cc1,-11.7%
14,CC(C)NC(=O)C1CCCN(S(=O)(=O)c2cccc3nonc23)C1 (stereo not shown),-1.94%
15,O=C(CN1CCN(c2ccc(O)cc2)CC1)Nc1cc(S(=O)(=O)N2CCOCC2)ccc1Cl,-11.7%
16,Cc1ccc(O)c(NC(=O)C2CC(c3ccc(F)cc3)=NO2)c1 (stereo not shown),-3.98%
17,CCc1cccc(NC(=O)CS(=O)Cc2nc(-c3ccc(C)cc3)oc2C)c1 (stereo not shown),-19.8%
18,CN(C)C=O.Cc1ccccc1NC(=O)COC(=O)C1=COCCO1,5.8%
19,Nc1cc([N+](=O)[O-])ccc1N1C(=O)CCCC1=O,14.5%
20,COc1ccc(NC(=O)c2cc3ccc(O)cc3o/c2=N\O)cc1,2.99%
21,COc1ccc(NC(=O)CCSc2nnnn2C)cc1,9.45%
22,CC(C)C[C@H](NC(=O)c1[nH]cnc1C(=O)Nc1ccccc1)C(=O)OC(C)(C)C,-1.86%

row,SMILES,"hERG current change (%, negative = inhibition) at 10uM"
1,Cc1ccc(C(=O)NCCSCc2ccccc2)cc1[N+](=O)[O-],-34.3%
2,CC(=O)Nc1ccc(S(=O)(=O)NC2=C(N3CCN(c4ccc(F)cc4)CC3)C(=O)c3ccccc3C2=O)cc1,5.95%
3,COCCNCC(=O)Nc1ccccc1Sc1ccccc1.O=C(O)C(=O)O,-13.6%
4,COc1ccc2nc3oc(C(=O)N4CCC(C(N)=O)CC4)cc3cc2c1,-2.11%
5,CC(Oc1ccccc1Cl)C(=O)Nc1ccccc1C(=O)N1CCOCC1 (stereo not shown),-0.907%
6,CCC(C)(C(=O)NC1CCCC1)N(C(=O)CC1NC(=O)NC1=O)c1c(C)n(C)n(-c2ccccc2)c1=O (stereo not shown),3.1%
7,COc1ccccc1C(=O)NCCC(=O)Nc1ccc(C)cn1,12.6%
8,Clc1cccc(N=C2NN=C(c3ccc4c(c3)OCCO4)CS2)c1,16.4%
9,CC1(C)Cc2ccccc2C(NNC(=O)c2ccccn2)=N1,2.95%
10,CCc1cc(/C(Cc2cscn2)=N\O)c(O)cc1O,3.66%
11,Cc1onc(-c2ccccc2)c1C(=O)N1CCN(C)CC1,0.556%
12,O=C(O)c1ccccc1Sc1c([N+](=O)[O-])cc(C(F)(F)F)cc1[N+](=O)[O-],36.5%
13,O=c1c2ccccc2nc(/C=C/c2cc(Br)ccc2O)n1CCCO,11.5%
14,CC1=C(C(=O)OC2CCCCC2)C(c2cccc([N+](=O)[O-])c2)NC(=O)N1 (stereo not shown),-5.62%
15,O=S(=O)(Oc1ccccc1)c1cccnc1,9.51%
16,OCC[C@H]1C[C@@H](O)[C@H](O)[C@]2(CCc3ccccc3O2)O1,6.93%
17,CCn1nnnc1SCC(=O)c1ccc(C)cc1,-9.66%
18,CCOc1ccc2[nH]c(=O)c(CN(CC3COCCO3)C(=O)c3ccc(C)cc3)cc2c1 (stereo not shown),-20.7%
19,COc1ccc(S(=O)(=O)NC(C)C(=O)NCc2cccnc2)cc1C (stereo not shown),-27.9%
20,C=CCSc1nnc2c(n1)OC(c1cccnc1)N(C(C)=O)c1ccccc1-2 (stereo not shown),-13.8%
21,COc1ccc(C(=O)N2CCN(Cc3cn[nH]c3-c3ccc(OC)cc3F)CC2)cc1,-38.3%
